# Values quoted from earlier work as cited in paper PMC11006913.
# The other results are listed elsewhere or left out.
# Target: NKX2-5 K183E (Homo sapiens) (UniProt P52952)
# Conditions: PBM; conditions not shown; double strand, one strand shown; scale: upbm affinity estimate (log intensity, higher = more binding, comparable within an allelic series)
row,Sequence,binding signal
1,ACTTACAC [8-mer ACTTACAC],11.1
2,ACCCTTAG [8-mer ACCCTTAG],10.5
3,GCCCTCAA [8-mer GCCCTCAA],10.6
4,CACCCTCA [8-mer CACCCTCA],10.6
5,AAAGCACT [8-mer AAAGCACT],11
6,ACTTAACA [8-mer ACTTAACA],10.9
7,CAAGTAGA [8-mer CAAGTAGA],10.9

# Target: NKX2-5 R161P (Homo sapiens) (UniProt P52952)
# Conditions: PBM; conditions not shown; double strand, one strand shown; scale: upbm affinity estimate (log intensity, higher = more binding, comparable within an allelic series)
row,Sequence,binding signal
1,AAGTGCCA [8-mer AAGTGCCA],12.5
2,AAGTGCCT [8-mer AAGTGCCT],12.4
3,AAGTGCTC [8-mer AAGTGCTC],12.4
4,ATACTTAC [8-mer ATACTTAC],12
5,ACAAGTGC [8-mer ACAAGTGC],12.5
6,CAAGTGCG [8-mer CAAGTGCG],12.5
7,AAGTGCAC [8-mer AAGTGCAC],12.5
8,CAAGTGTC [8-mer CAAGTGTC],12.4
9,ATAAGATG [8-mer ATAAGATG],11.4
10,ACAATTGA [8-mer ACAATTGA],11.9
11,GCACTTTA [8-mer GCACTTTA],12.4

# Target: NKX2-5 R190C (Homo sapiens) (UniProt P52952)
# Conditions: PBM; conditions not shown; double strand, one strand shown; scale: upbm affinity estimate (log intensity, higher = more binding, comparable within an allelic series)
row,Sequence,binding signal
1,ACTTACAC [8-mer ACTTACAC],10.8
2,AGAGTGGG [8-mer AGAGTGGG],10.4
3,ACCCTTAG [8-mer ACCCTTAG],10.4
4,CAAGTGCC [8-mer CAAGTGCC],10.3
5,CGAGTGGC [8-mer CGAGTGGC],10.2
6,GCCCTCAA [8-mer GCCCTCAA],10.3
7,GCCCCTTA [8-mer GCCCCTTA],10.3
8,CACCCTCA [8-mer CACCCTCA],10.3
9,AAAGCACT [8-mer AAAGCACT],10.7
10,GCCCTTGA [8-mer GCCCTTGA],10.4
11,GCCCTTAA [8-mer GCCCTTAA],10.4
12,ACTTAACA [8-mer ACTTAACA],10.8
13,AGAGTGGC [8-mer AGAGTGGC],10.4
14,ATACTTAC [8-mer ATACTTAC],11
15,GACCCTTA [8-mer GACCCTTA],10.4
16,ACCCTCGA [8-mer ACCCTCGA],10.4

row,Sequence,binding signal
1,AAGGGCCC [8-mer AAGGGCCC],10.2
2,GCTTATTA [8-mer GCTTATTA],10.9
3,AAGAGGAC [8-mer AAGAGGAC],10.4
4,CCTCTTAC [8-mer CCTCTTAC],10.4
5,CTAAGAGC [8-mer CTAAGAGC],10.4
6,AAGAGGGC [8-mer AAGAGGGC],10.3
7,AAGAGGGG [8-mer AAGAGGGG],10.2
8,ATAAGATG [8-mer ATAAGATG],10.9
9,CCAAGAGG [8-mer CCAAGAGG],10.3
10,ACAATTGA [8-mer ACAATTGA],11.1
11,CAAGAGGG [8-mer CAAGAGGG],10.3
12,CCAAGTAG [8-mer CCAAGTAG],10.4
13,GCCCTTCA [8-mer GCCCTTCA],10.4
14,CAAGTAGA [8-mer CAAGTAGA],10.7
15,CCACTCTC [8-mer CCACTCTC],10.3
16,CAGAGTGG [8-mer CAGAGTGG],10.4
